From the antibiotic and cytotoxicity screens of Wong et al. (2023)
The list shows a part of the results.

Legend:
[1] = test system: HSkMC (human skeletal muscle cells); assay: cytotoxicity call (relative viability < 0.9); conditions: 10 µM
[2] = test system: HepG2; assay: cytotoxicity call (relative viability < 0.9); conditions: 10 µM
[3] = test system: S. aureus RN4220; assay: growth inhibition call (relative growth <= 0.2); conditions: 50 µM

With `C[C@@H]1CCCCO[C@H](CN(C)Cc2ccccc2)[C@@H](C)CN([C@H](C)CO)C(=O)c2cc(NC(=O)C3CCCCC3)ccc2O1` the cytotoxicity call [1] was “inactive”, the cytotoxicity call [2] was “inactive” and the growth inhibition call [3] was “inactive”.

For `C[C@@H]1CN([C@H](C)CO)C(=O)c2cccc(NC(=O)Nc3ccc(C(F)(F)F)cc3)c2O[C@@H]1CN(C)S(=O)(=O)c1ccc(Cl)cc1`, the cytotoxicity call [1] was “inactive”, the cytotoxicity call [2] was “inactive” and the growth inhibition call [3] was “inactive”.

`CO[C@H]1CN(C)C(=O)c2cc(NC(=O)Nc3ccccc3F)ccc2OC[C@@H](C)N(CCC(F)(F)F)C[C@@H]1C` was tested, and the cytotoxicity call [1] was “inactive”, the cytotoxicity call [2] was “inactive” and the growth inhibition call [3] was “inactive”.

In the case of `COc1cccc2c1C(=O)c1c(O)c3c(c(O)c1C2=O)C[C@@](O)(C(=O)CO)C[C@@H]3O[C@H]1C[C@H](N)[C@H](O)[C@H](C)O1`, the cytotoxicity call [1] is reported as “active”, the cytotoxicity call [2] is reported as “active” and the growth inhibition call [3] is reported as “active”.

With `Cc1ccc(S(=O)(=O)Nc2cccc3c2O[C@@H](CN(C)C(=O)Nc2ccc(C(F)(F)F)cc2)[C@@H](C)CN([C@H](C)CO)C3=O)cc1` the cytotoxicity call [1] was “inactive”, the cytotoxicity call [2] was “inactive” and the growth inhibition call [3] was “inactive”.

In the case of `COc1ccc(S(=O)(=O)N(C)C[C@@H]2Oc3ccc(NS(=O)(=O)c4ccccc4)cc3C(=O)N([C@H](C)CO)C[C@H]2C)cc1`, the cytotoxicity call [1] is reported as “inactive”, the cytotoxicity call [2] is reported as “inactive” and the growth inhibition call [3] is reported as “inactive”.

For `C[C@@H]1CN([C@H](C)CO)C(=O)Cc2cc(NC(=O)Nc3cccc4ccccc34)ccc2O[C@H]1CN(C)Cc1ccc(-c2ccccc2)cc1`, the cytotoxicity call [1] was “inactive”, the cytotoxicity call [2] was “inactive” and the growth inhibition call [3] was “inactive”.

For `O=C(Cc1ccncc1)NCC[C@H]1CC[C@@H](NC(=O)C2CCOCC2)[C@H](CO)O1`, the cytotoxicity call [1] was “inactive”, the cytotoxicity call [2] was “inactive” and the growth inhibition call [3] was “inactive”.

In the case of `Cc1ccc(S(=O)(=O)N(C)C[C@H]2Oc3ccc(NC(=O)CCCN(C)C)cc3CC(=O)N([C@@H](C)CO)C[C@H]2C)cc1`, the cytotoxicity call [1] is reported as “inactive”, the cytotoxicity call [2] is reported as “inactive” and the growth inhibition call [3] is reported as “inactive”.

With `CO[C@@H]1CN(C)C(=O)c2cc(NS(=O)(=O)c3cn(C)cn3)ccc2OC[C@@H](C)N(Cc2cccc(F)c2)C[C@H]1C` the cytotoxicity call [1] was “inactive”, the cytotoxicity call [2] was “inactive” and the growth inhibition call [3] was “inactive”.

For `COc1ccc2c(c1)C(=O)C(=O)N2`, the cytotoxicity call [1] was “inactive”, the cytotoxicity call [2] was “inactive” and the growth inhibition call [3] was “inactive”.

`COCCOC(=O)N1C(=O)[C@@]2(c3cc(C#CCCO)ccc31)[C@H](c1ccccc1OCCO)N1[C@H](c3ccccc3)[C@H](c3ccccc3)OC(=O)[C@H]1[C@@H]2C(=O)NC[C@H](O)c1ccccc1` was tested, and the cytotoxicity call [1] was “inactive”, the cytotoxicity call [2] was “inactive” and the growth inhibition call [3] was “inactive”.

In the case of `C[C@H](CO)N1C[C@H](C)[C@H](CN(C)Cc2ccccc2)OCCCC[C@H](C)Oc2ccc(NS(=O)(=O)c3cccs3)cc2C1=O`, the cytotoxicity call [1] is reported as “inactive”, the cytotoxicity call [2] is reported as “inactive” and the growth inhibition call [3] is reported as “inactive”.

In the case of `NNC(=O)c1nc(-c2ccccc2)no1`, the cytotoxicity call [1] is reported as “inactive”, the cytotoxicity call [2] is reported as “inactive” and the growth inhibition call [3] is reported as “inactive”.

In the case of `C[C@@H]1CCCCO[C@H](CN(C)C(=O)c2ccccc2)[C@@H](C)CN([C@H](C)CO)C(=O)c2cc(NC(=O)Nc3ccc(C(F)(F)F)cc3)ccc2O1`, the cytotoxicity call [1] is reported as “inactive”, the cytotoxicity call [2] is reported as “inactive” and the growth inhibition call [3] is reported as “inactive”.

In the case of `C[C@@H]1CN([C@H](C)CO)C(=O)c2cccc(NC(=O)c3cnccn3)c2O[C@H]1CN(C)S(=O)(=O)c1cccs1`, the cytotoxicity call [1] is reported as “inactive”, the cytotoxicity call [2] is reported as “inactive” and the growth inhibition call [3] is reported as “inactive”.

With `C[C@H](CO)N1C[C@H](C)[C@@H](CN(C)S(=O)(=O)c2ccc(-c3ccccc3)cc2)OCc2cn(nn2)CCCC1=O` the cytotoxicity call [1] was “inactive”, the cytotoxicity call [2] was “inactive” and the growth inhibition call [3] was “inactive”.

In the case of `C[C@@H]1CN([C@H](C)CO)C(=O)c2cc(NC(=O)Nc3ccccc3)ccc2O[C@@H](C)CCCCO[C@@H]1CN(C)Cc1ccncc1`, the cytotoxicity call [1] is reported as “inactive”, the cytotoxicity call [2] is reported as “inactive” and the growth inhibition call [3] is reported as “inactive”.

`Nc1ccc(/C=C/c2ccccc2)cc1` was tested, and the cytotoxicity call [1] was “inactive”, the cytotoxicity call [2] was “inactive” and the growth inhibition call [3] was “inactive”.

With `CCS(=O)(=O)N1CC[C@]2(CC1)CN([C@@H](CO)c1[nH]c3cc(ccc3c12)OC)S(=O)(=O)c1cccc(c1)OC` the cytotoxicity call [1] was “inactive”, the cytotoxicity call [2] was “inactive” and the growth inhibition call [3] was “inactive”.

`C[C@@H]1CN([C@H](C)CO)C(=O)c2cccc(NS(=O)(=O)c3ccccc3)c2O[C@H]1CN(C)S(=O)(=O)c1ccc(F)cc1` was tested, and the cytotoxicity call [1] was “inactive”, the cytotoxicity call [2] was “inactive” and the growth inhibition call [3] was “inactive”.

`COC(=O)[C@H](Cc1ccccc1)N1CC2=C[C@@H](C3CC3)n3c(=O)n(C)c(=O)n3[C@H]2[C@@H]1[C@@H](O)CCn1cc(-c2ccc(C(=O)NO)cc2)nn1` was tested, and the cytotoxicity call [1] was “inactive”, the cytotoxicity call [2] was “inactive” and the growth inhibition call [3] was “inactive”.

For `COc1ccc(NC(=O)N(C)C[C@@H]2OCCCC[C@H](C)Oc3ccc(NC(=O)C4CCCCC4)cc3C(=O)N([C@H](C)CO)C[C@H]2C)cc1`, the cytotoxicity call [1] was “inactive”, the cytotoxicity call [2] was “inactive” and the growth inhibition call [3] was “inactive”.

With `C[C@H]1CCCCO[C@H](CN(C)S(=O)(=O)c2cccs2)[C@@H](C)CN([C@@H](C)CO)C(=O)c2cc(NC(=O)Nc3ccc(C(F)(F)F)cc3)ccc2O1` the cytotoxicity call [1] was “inactive”, the cytotoxicity call [2] was “inactive” and the growth inhibition call [3] was “inactive”.

`C[C@H](CCOc1cccc(CC(=O)O)c1)N(Cc1cccc(C(F)(F)F)c1Cl)CC(c1ccccc1)c1ccccc1` was tested, and the cytotoxicity call [1] was “inactive”, the cytotoxicity call [2] was “inactive” and the growth inhibition call [3] was “inactive”.

For `O=c1c(O)c(-c2ccccc2)oc2ccccc12`, the cytotoxicity call [1] was “inactive”, the cytotoxicity call [2] was “inactive” and the growth inhibition call [3] was “inactive”.

In the case of `C[C@@H]1CC[C@@]2(OC1)O[C@H]1C[C@H]3[C@H]4C[C@@H](O)[C@H]5C[C@@H](O[C@@H]6O[C@H](CO)[C@H](O[C@@H]7O[C@H](CO)[C@@H](O)[C@H](O[C@@H]8OC[C@@H](O)[C@H](O)[C@H]8O)[C@H]7O[C@@H]7O[C@H](CO)[C@@H](O[C@@H]8O[C@H](CO)[C@@H](O)[C@H](O)[C@H]8O)[C@H](O)[C@H]7O)[C@H](O)[C@H]6O)CC[C@]5(C)[C@@H]4CC[C@]3(C)[C@H]1[C@@H]2C`, the cytotoxicity call [1] is reported as “active”, the cytotoxicity call [2] is reported as “active” and the growth inhibition call [3] is reported as “inactive”.
